Results as given in PMC5325423.
Results are given in words; binding and its absence hold for the method and conditions named. In cells and extracts the contact can be indirect. Some results given as binding are weak or reduced against the parent protein; the word gives no strength.

Protein sequences, listed by entry. Tags and fused reporters are not part of them. Lines headed by an entry give the natural chain unless they say otherwise; changes in a name come on top. Chains listed by the source or under a name are the forms on record and can include a tag or linker.
UniProt Q02248: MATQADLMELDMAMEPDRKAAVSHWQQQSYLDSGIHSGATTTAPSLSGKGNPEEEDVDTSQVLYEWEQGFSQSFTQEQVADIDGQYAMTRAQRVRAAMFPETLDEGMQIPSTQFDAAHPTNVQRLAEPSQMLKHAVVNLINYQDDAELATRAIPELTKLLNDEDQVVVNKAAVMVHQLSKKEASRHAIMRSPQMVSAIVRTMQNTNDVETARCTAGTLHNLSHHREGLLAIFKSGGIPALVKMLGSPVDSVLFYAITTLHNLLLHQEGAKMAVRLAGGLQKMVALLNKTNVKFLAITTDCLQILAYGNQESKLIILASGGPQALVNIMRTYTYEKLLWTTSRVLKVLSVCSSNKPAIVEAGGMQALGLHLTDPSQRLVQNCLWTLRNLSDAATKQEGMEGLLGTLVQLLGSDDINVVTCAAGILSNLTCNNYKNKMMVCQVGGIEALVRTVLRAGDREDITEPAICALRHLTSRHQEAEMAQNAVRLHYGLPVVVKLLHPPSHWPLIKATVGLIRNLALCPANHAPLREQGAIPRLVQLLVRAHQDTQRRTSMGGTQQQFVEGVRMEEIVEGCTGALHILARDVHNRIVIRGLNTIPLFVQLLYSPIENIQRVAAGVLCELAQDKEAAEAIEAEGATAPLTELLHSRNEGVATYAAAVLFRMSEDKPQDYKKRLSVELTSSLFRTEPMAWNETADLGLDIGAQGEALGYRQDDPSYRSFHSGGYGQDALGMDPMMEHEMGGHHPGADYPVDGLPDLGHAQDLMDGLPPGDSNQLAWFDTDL
UniProt P13569: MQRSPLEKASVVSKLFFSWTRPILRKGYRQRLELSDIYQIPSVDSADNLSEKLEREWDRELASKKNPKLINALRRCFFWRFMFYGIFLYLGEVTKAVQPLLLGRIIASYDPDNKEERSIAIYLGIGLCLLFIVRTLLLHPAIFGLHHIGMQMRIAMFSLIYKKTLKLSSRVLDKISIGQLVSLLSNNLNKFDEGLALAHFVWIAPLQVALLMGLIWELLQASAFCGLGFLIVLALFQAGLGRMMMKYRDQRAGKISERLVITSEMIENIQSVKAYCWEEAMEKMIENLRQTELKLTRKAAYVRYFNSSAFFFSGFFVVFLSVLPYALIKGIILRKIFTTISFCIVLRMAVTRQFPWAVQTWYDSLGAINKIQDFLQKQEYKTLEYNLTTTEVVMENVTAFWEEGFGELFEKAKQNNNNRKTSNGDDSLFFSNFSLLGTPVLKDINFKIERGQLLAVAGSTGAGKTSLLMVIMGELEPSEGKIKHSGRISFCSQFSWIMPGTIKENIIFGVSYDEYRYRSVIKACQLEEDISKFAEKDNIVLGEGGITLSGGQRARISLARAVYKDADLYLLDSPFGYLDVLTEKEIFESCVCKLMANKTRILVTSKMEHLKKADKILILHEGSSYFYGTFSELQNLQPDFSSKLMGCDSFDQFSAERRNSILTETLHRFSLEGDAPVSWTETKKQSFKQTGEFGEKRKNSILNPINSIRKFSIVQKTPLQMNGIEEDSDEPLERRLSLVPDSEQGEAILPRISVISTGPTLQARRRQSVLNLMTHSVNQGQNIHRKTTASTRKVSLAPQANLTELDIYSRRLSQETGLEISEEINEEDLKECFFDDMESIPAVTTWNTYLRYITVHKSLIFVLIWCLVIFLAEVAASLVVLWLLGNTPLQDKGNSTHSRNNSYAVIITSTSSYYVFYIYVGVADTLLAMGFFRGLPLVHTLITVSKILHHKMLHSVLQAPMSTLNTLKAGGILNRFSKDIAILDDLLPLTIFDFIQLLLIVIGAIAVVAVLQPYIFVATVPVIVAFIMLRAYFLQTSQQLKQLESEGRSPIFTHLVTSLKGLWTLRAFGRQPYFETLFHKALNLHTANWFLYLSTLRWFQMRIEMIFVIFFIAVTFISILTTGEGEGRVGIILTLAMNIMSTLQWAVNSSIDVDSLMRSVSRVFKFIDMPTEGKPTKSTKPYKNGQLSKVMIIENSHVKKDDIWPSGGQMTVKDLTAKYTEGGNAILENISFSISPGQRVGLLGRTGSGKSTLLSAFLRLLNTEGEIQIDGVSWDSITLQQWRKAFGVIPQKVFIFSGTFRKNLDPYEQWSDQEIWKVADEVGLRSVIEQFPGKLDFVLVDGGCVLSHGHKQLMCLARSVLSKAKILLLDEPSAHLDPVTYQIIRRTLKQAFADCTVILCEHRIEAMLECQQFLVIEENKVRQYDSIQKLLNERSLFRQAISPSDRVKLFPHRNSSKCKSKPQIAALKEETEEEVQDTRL
UniProt P35222: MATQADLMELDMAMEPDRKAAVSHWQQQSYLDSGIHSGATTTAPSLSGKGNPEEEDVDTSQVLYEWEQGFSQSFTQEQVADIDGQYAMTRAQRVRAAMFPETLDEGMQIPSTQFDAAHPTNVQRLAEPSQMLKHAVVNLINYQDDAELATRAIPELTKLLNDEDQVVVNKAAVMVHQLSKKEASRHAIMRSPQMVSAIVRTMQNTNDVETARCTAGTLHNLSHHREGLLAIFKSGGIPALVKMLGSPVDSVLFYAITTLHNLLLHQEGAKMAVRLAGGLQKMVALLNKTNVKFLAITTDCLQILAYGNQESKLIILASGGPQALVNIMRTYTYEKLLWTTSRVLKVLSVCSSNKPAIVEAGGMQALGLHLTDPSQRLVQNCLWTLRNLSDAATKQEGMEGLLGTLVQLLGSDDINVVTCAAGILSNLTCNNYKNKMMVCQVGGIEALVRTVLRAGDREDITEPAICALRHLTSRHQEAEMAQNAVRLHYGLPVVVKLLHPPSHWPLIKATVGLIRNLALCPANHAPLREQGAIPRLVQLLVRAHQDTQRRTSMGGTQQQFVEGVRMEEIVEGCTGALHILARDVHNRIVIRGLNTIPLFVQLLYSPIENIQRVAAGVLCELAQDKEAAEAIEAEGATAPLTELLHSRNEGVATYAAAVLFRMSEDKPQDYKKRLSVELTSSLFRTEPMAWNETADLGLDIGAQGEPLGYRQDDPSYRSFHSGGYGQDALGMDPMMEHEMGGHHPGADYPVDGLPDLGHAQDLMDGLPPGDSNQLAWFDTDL
UniProt P26361: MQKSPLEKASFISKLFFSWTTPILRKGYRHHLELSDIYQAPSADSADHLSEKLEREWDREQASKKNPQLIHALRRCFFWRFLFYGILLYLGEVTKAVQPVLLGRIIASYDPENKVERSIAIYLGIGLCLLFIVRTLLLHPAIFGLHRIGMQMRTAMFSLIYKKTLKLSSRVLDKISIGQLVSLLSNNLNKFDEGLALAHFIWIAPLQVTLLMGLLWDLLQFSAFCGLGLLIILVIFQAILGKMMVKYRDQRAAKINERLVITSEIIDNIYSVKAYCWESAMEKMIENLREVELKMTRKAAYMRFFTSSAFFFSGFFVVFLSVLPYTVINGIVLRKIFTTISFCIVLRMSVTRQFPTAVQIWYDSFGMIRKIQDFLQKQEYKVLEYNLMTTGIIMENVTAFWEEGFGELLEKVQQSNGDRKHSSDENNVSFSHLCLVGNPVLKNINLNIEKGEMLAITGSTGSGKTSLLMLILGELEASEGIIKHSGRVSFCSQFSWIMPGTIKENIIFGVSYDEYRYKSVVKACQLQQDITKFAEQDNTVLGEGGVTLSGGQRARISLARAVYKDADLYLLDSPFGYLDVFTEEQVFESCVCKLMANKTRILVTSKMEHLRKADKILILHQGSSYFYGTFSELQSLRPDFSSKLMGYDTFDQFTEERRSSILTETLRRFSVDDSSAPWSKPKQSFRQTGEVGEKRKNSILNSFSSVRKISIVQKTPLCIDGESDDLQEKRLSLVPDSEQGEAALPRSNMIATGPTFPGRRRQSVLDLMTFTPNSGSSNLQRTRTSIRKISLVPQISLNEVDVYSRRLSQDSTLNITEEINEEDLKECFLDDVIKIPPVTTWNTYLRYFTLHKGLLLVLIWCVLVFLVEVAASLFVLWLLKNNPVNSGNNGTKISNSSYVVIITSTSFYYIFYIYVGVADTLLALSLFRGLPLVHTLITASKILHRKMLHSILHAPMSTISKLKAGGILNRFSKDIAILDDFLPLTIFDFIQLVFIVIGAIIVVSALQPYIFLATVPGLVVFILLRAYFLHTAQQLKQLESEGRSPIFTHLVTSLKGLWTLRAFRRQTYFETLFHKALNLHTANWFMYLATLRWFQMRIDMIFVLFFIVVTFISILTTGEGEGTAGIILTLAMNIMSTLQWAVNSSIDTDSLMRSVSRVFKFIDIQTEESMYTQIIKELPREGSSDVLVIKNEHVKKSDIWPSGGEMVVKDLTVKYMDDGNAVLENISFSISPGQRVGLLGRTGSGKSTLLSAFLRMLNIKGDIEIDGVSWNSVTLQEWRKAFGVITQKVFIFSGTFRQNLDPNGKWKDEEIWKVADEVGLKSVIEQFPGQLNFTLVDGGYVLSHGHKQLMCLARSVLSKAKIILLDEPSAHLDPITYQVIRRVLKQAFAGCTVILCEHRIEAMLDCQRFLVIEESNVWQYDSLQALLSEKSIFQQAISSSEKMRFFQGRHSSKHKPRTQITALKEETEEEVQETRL
ΔF508 CFTR protein, mouse (P26361, form named): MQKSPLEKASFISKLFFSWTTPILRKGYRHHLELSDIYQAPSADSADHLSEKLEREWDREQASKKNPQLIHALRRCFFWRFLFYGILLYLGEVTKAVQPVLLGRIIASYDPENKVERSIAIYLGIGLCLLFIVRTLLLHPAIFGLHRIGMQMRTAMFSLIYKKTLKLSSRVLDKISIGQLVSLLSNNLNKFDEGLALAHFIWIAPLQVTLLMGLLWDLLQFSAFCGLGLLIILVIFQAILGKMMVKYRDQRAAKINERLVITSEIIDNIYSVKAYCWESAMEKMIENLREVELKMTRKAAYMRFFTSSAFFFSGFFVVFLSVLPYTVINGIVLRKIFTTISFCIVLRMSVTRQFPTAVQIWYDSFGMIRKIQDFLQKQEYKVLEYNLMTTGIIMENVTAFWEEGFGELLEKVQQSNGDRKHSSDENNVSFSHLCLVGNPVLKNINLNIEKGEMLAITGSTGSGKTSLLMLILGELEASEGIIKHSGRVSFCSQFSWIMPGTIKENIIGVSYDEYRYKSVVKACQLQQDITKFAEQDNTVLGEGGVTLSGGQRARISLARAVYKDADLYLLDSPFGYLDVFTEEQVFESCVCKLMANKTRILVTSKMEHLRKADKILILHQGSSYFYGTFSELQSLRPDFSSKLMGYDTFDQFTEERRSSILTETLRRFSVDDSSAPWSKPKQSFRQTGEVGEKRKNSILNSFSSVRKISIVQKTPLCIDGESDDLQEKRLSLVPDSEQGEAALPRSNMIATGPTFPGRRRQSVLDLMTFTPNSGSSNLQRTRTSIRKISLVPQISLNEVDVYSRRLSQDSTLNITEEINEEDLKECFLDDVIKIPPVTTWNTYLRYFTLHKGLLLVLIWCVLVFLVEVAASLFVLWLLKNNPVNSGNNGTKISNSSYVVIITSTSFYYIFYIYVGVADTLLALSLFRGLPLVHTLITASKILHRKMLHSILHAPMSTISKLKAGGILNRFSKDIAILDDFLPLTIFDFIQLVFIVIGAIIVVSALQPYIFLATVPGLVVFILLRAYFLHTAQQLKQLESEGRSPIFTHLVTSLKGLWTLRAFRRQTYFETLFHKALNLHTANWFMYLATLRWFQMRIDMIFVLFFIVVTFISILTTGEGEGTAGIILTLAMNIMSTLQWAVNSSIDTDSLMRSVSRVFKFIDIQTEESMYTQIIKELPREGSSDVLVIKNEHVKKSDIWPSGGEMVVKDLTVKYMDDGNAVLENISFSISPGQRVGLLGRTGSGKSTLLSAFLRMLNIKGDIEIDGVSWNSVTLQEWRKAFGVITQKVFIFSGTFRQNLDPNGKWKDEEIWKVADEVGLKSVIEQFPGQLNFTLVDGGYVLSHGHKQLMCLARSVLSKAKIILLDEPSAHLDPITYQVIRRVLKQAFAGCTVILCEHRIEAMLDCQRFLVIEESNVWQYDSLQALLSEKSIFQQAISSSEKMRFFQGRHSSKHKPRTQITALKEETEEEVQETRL
UniProt Q04207: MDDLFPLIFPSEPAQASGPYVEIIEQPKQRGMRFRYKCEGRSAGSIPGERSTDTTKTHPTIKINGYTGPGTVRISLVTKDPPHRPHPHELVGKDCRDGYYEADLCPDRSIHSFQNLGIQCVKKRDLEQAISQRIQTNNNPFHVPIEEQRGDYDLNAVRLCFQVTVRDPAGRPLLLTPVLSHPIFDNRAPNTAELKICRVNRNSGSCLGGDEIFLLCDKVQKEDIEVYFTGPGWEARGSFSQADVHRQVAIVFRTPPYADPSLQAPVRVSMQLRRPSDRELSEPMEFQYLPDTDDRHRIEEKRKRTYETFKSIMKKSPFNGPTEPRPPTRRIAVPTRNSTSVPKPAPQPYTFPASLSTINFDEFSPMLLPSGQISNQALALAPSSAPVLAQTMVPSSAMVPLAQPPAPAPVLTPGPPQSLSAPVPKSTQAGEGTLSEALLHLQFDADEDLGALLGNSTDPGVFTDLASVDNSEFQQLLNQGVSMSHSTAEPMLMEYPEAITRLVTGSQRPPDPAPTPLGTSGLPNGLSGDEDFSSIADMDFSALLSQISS

Key:
[1] = biological target: β-catenin, mouse (mouse (endogenous in intestine)) (UniProt Q02248); assay: co-IP; WT and ΔF508 mouse intestine immunoprecipitated with anti-β-catenin antibody; Western blot for CFTR and p65
[2] = biological target: cystic fibrosis transmembrane conductance regulator (CFTR), human (human (endogenous in Caco-2)) (UniProt P13569); assay: co-IP; Caco-2 cell lysates (50 mM HEPES pH 8.3, 420 mM KCl, 0.1% NP-40, 1 mM EDTA) immunoprecipitated with anti-CFTR, anti-β-catenin or anti-NF-κB p65 antibody and protein A/G beads, 4°C overnight; Western blot; IgG control
[3] = biological target: NF-κB p65, human (human (endogenous in Caco-2)) (UniProt Q04206); assay: as above
[4] = biological target: β-catenin, human (human (endogenous in Caco-2)) (UniProt P35222); assay: as above

For “CFTR, mouse, wild type (from UniProt P26361 1-1476)”, the binding [1] was “binds”.
“NF-κB p65, human (from UniProt Q04206 1-551)” was tested, and the binding [2] was “binds”.
With “NF-κB p65, mouse (from UniProt Q04207 1-549)” the binding [1] was “binds”.
In the case of “cystic fibrosis transmembrane conductance regulator (CFTR), human (from UniProt P13569 1-1480)”, the binding [3] is reported as “binds” and the binding [4] is reported as “binds”.
For “ΔF508 CFTR protein, mouse (from UniProt P26361 1-1476)”, the binding [1] was “no binding”.
For “β-catenin, human (from UniProt P35222 1-781)”, the binding [2] was “binds”.
